Measurements from the supplement of paper PMC4166925.
± gives the standard deviation of the averaged measurements. The full ranking holds about 33,000 sequences; the median of “E-score (dimensionless, -0.5 to 0.5)” is about -0.049, and the highest 2% start at about 0.37. The list shows a part of the results.

test system: T1, PmTbr T-box DNA-binding domain (GST fusion); assay: PBM E-score of 8-mer (E-score (dimensionless, -0.5 to 0.5)); Tbr is Tbrain of the sea star Patiria miniata (Pm) or the sea urchin Strongylocentrotus purpuratus (Sp); higher = stronger binding preference; most listed sequences are background and not binding sites; conditions: the construct has about 5 more residues each side
T1 sequence: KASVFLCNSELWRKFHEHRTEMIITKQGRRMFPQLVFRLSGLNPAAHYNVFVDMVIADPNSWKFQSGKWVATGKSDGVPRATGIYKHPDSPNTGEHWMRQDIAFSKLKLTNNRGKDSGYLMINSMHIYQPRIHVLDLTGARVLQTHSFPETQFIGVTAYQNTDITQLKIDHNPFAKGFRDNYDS
Summary of the method: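 Expression of GST-fused Tbr T-box DNA-binding domains, each holding the full T-box plus roughly five flanking residues, was carried out in BL21 E. coli at 20 °C, with purification by glutathione affinity chromatography. Universal Agilent arrays made double-stranded by primer extension were incubated with the protein at 200 nM in PBS (pH 7.5), then scanned and quantified. All ungapped 8-mers were scored from probe intensities, and each received an enrichment E-score from the Universal PBM Analysis Suite, averaged over duplicate arrays.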

Sequence | PBM E-score of 8-mer
AATCCACG | -0.0596 ± 0.03
AAATGGTT | 0.0765 ± 0.0015
AATATAAC | 0.231 ± 0.056
CGCCCGAC | 0.21 ± 0.0063
ATGGGCCA | -0.105 ± 0.04
CAGTCCAA | -0.118 ± 0.051
ACACGAGA | 0.127 ± 0.077
ACCGAAAG | -0.137 ± 0.04
AGACAGCA | 0.0102 ± 0.029
CATACTCG | 0.0863 ± 0.088
TACTACAA | -0.149 ± 0.064
AAGTGTTA | 0.467 ± 0.0064
ACATAAAC | -0.0157 ± 0.067
AGCGGACA | -0.175 ± 0.006
AATAAACC | -0.29 ± 0.032
ATTAACGC | 0.235 ± 0.052
TCGCCAGA | 0.0621 ± 0.0031
CTACTCGA | -0.0985 ± 0.018
TCACCGAA | 0.0638 ± 0.0097
AATTAGCA | 0.249 ± 0.04
ACGTGATA | 0.266 ± 0.037
AAAAAAGA | -0.153 ± 0.093

Sequence | PBM E-score of 8-mer
TCCGATCA | 0.026 ± 0.042
GTCAGTGA | 0.122 ± 0.036
ACGACGGC | -0.0644 ± 0.016
CACTACGG | 0.11 ± 0.022
ACATATAT | -0.00236 ± 0.0046
ACTTTGCC | -0.00123 ± 0.012
AGTGACGG | 0.24 ± 0.038
ATTGGACG | -0.275 ± 0.013
GTATATAA | -0.0836 ± 0.03
AGAGAAAA | -0.129 ± 0.049
CCCTTTGC | -0.148 ± 0.0026
ATTTCGGC | 0.139 ± 0.012
CAGCTGCC | 0.0085 ± 0.024
AGTGTTTA | 0.258 ± 0.043
AGCCAAGA | -0.25 ± 0.044
ACAATCCA | -0.0322 ± 0.0046
AACTTAGC | 0.122 ± 0.0076
AGATAAAG | -0.138 ± 0.054
ATGACTCG | -0.055 ± 0.11
ACACGAGC | 0.0847 ± 0.0069
ATTTAAAT | 0.0609 ± 0.14
GGATTGCC | -0.0355 ± 0.078

Sequence | PBM E-score of 8-mer
CAAGCATG | -0.0451 ± 0.032
AATCGGGC | -0.178 ± 0.039
CAATTCAA | 0.00842 ± 0.019
ACCTTAAT | 0.0473 ± 0.1
CTAACGGC | 0.128 ± 0.029
CATTCGCG | 0.353 ± 0.004
CGACGGGC | -0.0616 ± 0.0087
AGTTGGCA | 0.267 ± 0.018
ACTTCACT | 0.147 ± 0.0065
AATAAGGA | -0.198 ± 0.017
ATTTAAAG | -0.164 ± 0.12
GTGATAGA | 0.297 ± 0.042
GCAATGAA | -0.0272 ± 0.033
GCGGAAGC | 0.0112 ± 0.014
CTGGGACC | -0.214 ± 0.053
CCGCGATC | 0.0852 ± 0.065
CTGCTCAA | -0.0839 ± 0.036
AACCATAG | -0.0343 ± 0.06
GGCAAGCA | -0.14 ± 0.043
ACTGTGAC | 0.239 ± 0.026
CATTCCAC | -0.091 ± 0.049
GGCTTAGA | -0.242 ± 0.021

Sequence | PBM E-score of 8-mer
AACTCCAG | -0.286 ± 0.01
CTTAGTTA | -0.165 ± 0.021
ACAGTCGG | 0.00435 ± 0.025
GGATGACA | 0.0332 ± 0.031
ATCCAAGG | 0.0236 ± 0.0032
TAACACGA | 0.242 ± 0.0091
AGTCCTAA | -0.169 ± 0.073
TGGACTAA | -0.217 ± 0.0037
ACACACGT | 0.305 ± 0.017
AGCAAAAA | -0.0388 ± 0.032
CTTCCGTA | -0.178 ± 0.11
ACGTAATC | -0.169 ± 0.0087
ACTATCGG | -0.166 ± 0.015
CAATGTCA | 0.19 ± 0.024
TCACGGCA | 0.155 ± 0.034
CCGAGGCG | 0.307 ± 0.0046
ACTCTGTG | -0.0509 ± 0.051
CCACATCA | 0.199 ± 0.019
ATGGATTC | -0.129 ± 0.024
AACCCCGG | -0.132 ± 0.086
ACCCCTGA | -0.126 ± 0.0081
CGGTGCCC | -0.215 ± 0.034

Sequence | PBM E-score of 8-mer
AATTGAGT | -0.0332 ± 0.059
CTGTAACA | 0.326 ± 0.0042
AAAAAAGT | -0.0899 ± 0.094
AAGGTCAT | -0.255 ± 0.0088
GAATGGCC | 0.00925 ± 0.026
CTCCGGTC | -0.096 ± 0.025
CATCGAGC | -0.143 ± 0.013
CAGTCGTC | -0.0961 ± 0.059
CCTCCTGA | -0.0506 ± 0.054
CTACTTAA | 0.00387 ± 0.015
CATTCAAG | 0.0462 ± 0.037
CCTCCGTA | -0.112 ± 0.018
AGTCCTAG | -0.0285 ± 0.042
GAGTATGC | -0.212 ± 0.015
GGCTCACA | 0.0846 ± 0.0034
GACACGTA | 0.317 ± 0.029
AAGGACCG | -0.217 ± 0.026
AGCGTCTC | -0.0521 ± 0.042
CAGCGTAG | -0.185 ± 0.029
CATGTCGG | -0.0209 ± 0.11
ACTTGACC | -0.27 ± 0.06
ACCGTGAC | 0.148 ± 0.073
